T1: Mouse GLP-1R (Mus musculus, UniProt O35659)
T1 construct: expressed in transfected cells; host or cells: HEK-293
T1 sequence (O35659 22-463): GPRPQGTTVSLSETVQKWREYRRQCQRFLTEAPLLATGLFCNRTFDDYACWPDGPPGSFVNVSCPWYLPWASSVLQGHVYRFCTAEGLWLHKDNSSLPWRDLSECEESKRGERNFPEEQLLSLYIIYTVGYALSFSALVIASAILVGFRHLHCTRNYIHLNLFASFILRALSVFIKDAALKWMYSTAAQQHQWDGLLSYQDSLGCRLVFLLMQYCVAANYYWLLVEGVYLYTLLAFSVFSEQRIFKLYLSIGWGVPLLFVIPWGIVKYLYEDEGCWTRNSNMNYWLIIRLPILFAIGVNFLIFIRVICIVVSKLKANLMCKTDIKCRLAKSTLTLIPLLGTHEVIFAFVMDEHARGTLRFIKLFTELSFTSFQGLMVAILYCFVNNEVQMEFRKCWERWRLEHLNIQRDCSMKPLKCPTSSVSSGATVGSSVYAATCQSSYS


Key:
Assay type in all cases: cell-based
Human GLP-1R = biological target: T2, Human GLP-1R (Homo sapiens, UniProt P43220); assay: HTRF cAMP assay in HEK-293 cells, human GLP-1R
T2 construct: expressed in transfected cells; host or cells: HEK-293
T2 sequence (P43220 24-463): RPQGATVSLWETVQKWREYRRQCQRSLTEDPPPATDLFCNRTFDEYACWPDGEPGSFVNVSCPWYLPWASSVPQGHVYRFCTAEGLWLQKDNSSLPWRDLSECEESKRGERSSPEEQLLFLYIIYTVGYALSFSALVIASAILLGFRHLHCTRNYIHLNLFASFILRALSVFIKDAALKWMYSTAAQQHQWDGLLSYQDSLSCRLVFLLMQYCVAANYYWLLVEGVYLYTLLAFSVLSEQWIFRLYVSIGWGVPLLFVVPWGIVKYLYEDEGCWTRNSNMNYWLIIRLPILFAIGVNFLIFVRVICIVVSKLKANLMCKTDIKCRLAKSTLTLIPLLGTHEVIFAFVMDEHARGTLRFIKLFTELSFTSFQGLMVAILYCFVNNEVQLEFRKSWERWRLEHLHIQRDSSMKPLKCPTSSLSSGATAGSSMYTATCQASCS

Mouse GLP-1R = biological target: T1, Mouse GLP-1R; assay: HTRF cAMP assay in HEK-293 cells, mouse GLP-1R
Procedure: (§1) Recombinant HEK-293 cells were grown in T175 culture flasks placed at 37° C. to near confluence in medium (DMEM with 10% FBS) and collected in 2 mL vials in cell culture medium containing 10% DMSO in concentrations of 1-5×10^7 cells/mL. Each vial contained 1.8 mL cell suspension. The vials were slowly frozen to −80° C. in an isopropanol chamber, and then transferred to liquid nitrogen for long term storage.
(§2) Prior to their use, frozen cells were thawed quickly at 37° C., washed with 20 mL cell buffer (1×HBSS; 20 mM HEPES, 0.1% BSA) and centrifuged for 5 minutes at 900 rpm. Cells were resuspended in assay buffer (cell buffer plus 2 mM IBMX) and adjusted to a cell density of 1×10^6 cells/mL. For measurement, 5 μL cell suspension (final 5×10^3 cells/well) and 5 μL of test compound were added to a well of a 384-well plate, followed by incubation for 30 minutes at room temperature. […] The cAMP content of cells was determined using a kit from Cisbio Corp. (cat. no. 62AM4PEC) based on Homogenous Time Resolved Fluorescence (HTRF).

Monkey GLP-1R = biological target: T3, Monkey GLP-1R (Macaca fascicularis, UniProt F8V479); assay: HTRF cAMP assay in HEK-293 cells, monkey GLP-1R
T3 construct: expressed in transfected cells; host or cells: HEK-293
T3 sequence (F8V479 24-463): as the sequence (P43220 24-463) above, with S112N, F120S, S202G, L205V, L237F, W241R, I249V counted along it
Procedure: as §1, §2

Row | EC50 (Human GLP-1R) | EC50 (Mouse GLP-1R) | EC50 (Monkey GLP-1R) | Molecule
1 | 0.108 nM | 0.0713 nM | 0.151 nM | 193 (protein, Fusion Protein) HGEGTFTSDLSKQLEKELVRLFYEWLINGGHSSQKPPPKGGGGGGGSGGGGSGGGGSA[… human IgG4 Fc with changes …]GGGSGSAHPIPDSSPLLQFGGQVRQRYLYTDDACQTEAHLEIREDGTVGGAADQSPESLLQLKALKPGVIQILGVKTSRFLCQRPDGALYGSLHFDPEACSFRELLLEDGYNVYQSEAHGLPLHLPGCKSPHRDPAPRGPARFLPLPGLPPAPPEPPGILAPQPPDVGSSDPLSMVGSQGRSPSYAS
2 | 0.0745 nM | 0.0566 nM | 0.0718 nM | 195 (protein, Fusion Protein) HGEGTFTSDLSKQLEKELVRLFYEWLINGGHSKGKPPPKGGGGGGGSGGGGSGGGGSA[… human IgG4 Fc with changes …]GGGSGSAHPIPDSSPLLQFGGQVRQRYLYTDDACQTEAHLEIREDGTVGGAADQSPESLLQLKALKPGVIQILGVKTSRFLCQRPDGALYGSLHFDPEACSFRELLLEDGYNVYQSEAHGLPLHLPGCKSPHRDPAPRGPARFLPLPGLPPAPPEPPGILAPQPPDVGSSDPLSMVGSQGRSPSYAS
3 | 0.163 nM | 0.153 nM | 0.231 nM | 199 (protein, Fusion Protein) HGEGTFTSDLSKQLEKELVRLFYEWLKAGGHSSGKPPPKGGGGGGGSGGGGSGGGGSA[… human IgG4 Fc with changes …]GGGSGSAHPIPDSSPLLQFGGQVRQRYLYTDDACQTEAHLEIREDGTVGGAADQSPESLLQLKALKPGVIQILGVKTSRFLCQRPDGALYGSLHFDPEACSFRELLLEDGYNVYQSEAHGLPLHLPGCKSPHRDPAPRGPARFLPLPGLPPAPPEPPGILAPQPPDVGSSDPLSMVGSQGRSPSYAS
4 | 0.0969 nM | 0.0892 nM | 0.102 nM | 203 (protein, Fusion Protein) HGEGTFTSDLSKQLEKELVRLFYEWLIKGGHKSGKPPPKGGGGGGGSGGGGSGGGGSA[… human IgG4 Fc with changes …]GGGSGSAHPIPDSSPLLQFGGQVRQRYLYTDDACQTEAHLEIREDGTVGGAADQSPESLLQLKALKPGVIQILGVKTSRFLCQRPDGALYGSLHFDPEACSFRELLLEDGYNVYQSEAHGLPLHLPGCKSPHRDPAPRGPARFLPLPGLPPAPPEPPGILAPQPPDVGSSDPLSMVGSQGRSPSYAS
5 | 0.147 nM | 0.128 nM | 0.189 nM | 207 (protein, Fusion Protein) HGEGTFTSDLSKQLEKRLVRLFYEWLKNGGHSSGKPPPKGGGGGGGSGGGGSGGGGSA[… human IgG4 Fc with changes …]GGGSGSAHPIPDSSPLLQFGGQVRQRYLYTDDACQTEAHLEIREDGTVGGAADQSPESLLQLKALKPGVIQILGVKTSRFLCQRPDGALYGSLHFDPEACSFRELLLEDGYNVYQSEAHGLPLHLPGCKSPHRDPAPRGPARFLPLPGLPPAPPEPPGILAPQPPDVGSSDPLSMVGSQGRSPSYAS
6 | 0.107 nM | 0.0937 nM | 0.151 nM | 206 (protein, Fusion Protein) HGEGTFTSDLSKQLEKRLVRLFYEWLLNGGHSSQKPPPKGGGGGGGSGGGGSGGGGSA[… human IgG4 Fc with changes …]GGGSGSAHPIPDSSPLLQFGGQVRQRYLYTDDACQTEAHLEIREDGTVGGAADQSPESLLQLKALKPGVIQILGVKTSRFLCQRPDGALYGSLHFDPEACSFRELLLEDGYNVYQSEAHGLPLHLPGCKSPHRDPAPRGPARFLPLPGLPPAPPEPPGILAPQPPDVGSSDPLSMVGSQGRSPSYAS
7 | 0.101 nM | 0.0717 nM | 0.128 nM | 202 (protein, Fusion Protein) HGEGTFTSDLSKQLEKELVRLFYEWLIKGGHSSIKPPPKGGGGGGGSGGGGSGGGGSA[… human IgG4 Fc with changes …]GGGSGSAHPIPDSSPLLQFGGQVRQRYLYTDDACQTEAHLEIREDGTVGGAADQSPESLLQLKALKPGVIQILGVKTSRFLCQRPDGALYGSLHFDPEACSFRELLLEDGYNVYQSEAHGLPLHLPGCKSPHRDPAPRGPARFLPLPGLPPAPPEPPGILAPQPPDVGSSDPLSMVGSQGRSPSYAS
8 | 0.101 nM | 0.0698 nM | 0.0986 nM | 201 (protein, Fusion Protein) HGEGTFTSDLSKQLEKELVRLFYEWLIKGGHSSQKPPPKGGGGGGGSGGGGSGGGGSA[… human IgG4 Fc with changes …]GGGSGSAHPIPDSSPLLQFGGQVRQRYLYTDDACQTEAHLEIREDGTVGGAADQSPESLLQLKALKPGVIQILGVKTSRFLCQRPDGALYGSLHFDPEACSFRELLLEDGYNVYQSEAHGLPLHLPGCKSPHRDPAPRGPARFLPLPGLPPAPPEPPGILAPQPPDVGSSDPLSMVGSQGRSPSYAS
9 | 0.103 nM | 0.0657 nM | 0.0935 nM | 204 (protein, Fusion Protein) HGEGTFTSDLSKQLEKELVRLFYEWLIKGGHSKGKPPPKGGGGGGGSGGGGSGGGGSA[… human IgG4 Fc with changes …]GGGSGSAHPIPDSSPLLQFGGQVRQRYLYTDDACQTEAHLEIREDGTVGGAADQSPESLLQLKALKPGVIQILGVKTSRFLCQRPDGALYGSLHFDPEACSFRELLLEDGYNVYQSEAHGLPLHLPGCKSPHRDPAPRGPARFLPLPGLPPAPPEPPGILAPQPPDVGSSDPLSMVGSQGRSPSYAS
10 | 0.0731 nM | 0.0462 nM | 0.111 nM | 200 (protein, Fusion Protein) HGEGTFTSDLSKQLEKELVRLFYEWLIKGGHSSGRPPPKGGGGGGGSGGGGSGGGGSA[… human IgG4 Fc with changes …]GGGSGSAHPIPDSSPLLQFGGQVRQRYLYTDDACQTEAHLEIREDGTVGGAADQSPESLLQLKALKPGVIQILGVKTSRFLCQRPDGALYGSLHFDPEACSFRELLLEDGYNVYQSEAHGLPLHLPGCKSPHRDPAPRGPARFLPLPGLPPAPPEPPGILAPQPPDVGSSDPLSMVGSQGRSPSYAS
11 | 0.131 nM | 0.127 nM | 0.113 nM | 205 (protein, Fusion Protein) HGEGTFTSDLSKQLEKELVRLFYEWLIAGGHKSQKPPPKGGGGGGGSGGGGSGGGGSA[… human IgG4 Fc with changes …]GGGSGSAHPIPDSSPLLQFGGQVRQRYLYTDDACQTEAHLEIREDGTVGGAADQSPESLLQLKALKPGVIQILGVKTSRFLCQRPDGALYGSLHFDPEACSFRELLLEDGYNVYQSEAHGLPLHLPGCKSPHRDPAPRGPARFLPLPGLPPAPPEPPGILAPQPPDVGSSDPLSMVGSQGRSPSYAS
12 | 0.0753 nM | 0.0317 nM | 0.127 nM | 196 (protein, Fusion Protein) HGEGTFTSDLSKQLEKELVRLFYEWLINGGPSSGKPPPKGGGGGGGSGGGGSGGGGSA[… human IgG4 Fc with changes …]GGGSGSAHPIPDSSPLLQFGGQVRQRYLYTDDACQTEAHLEIREDGTVGGAADQSPESLLQLKALKPGVIQILGVKTSRFLCQRPDGALYGSLHFDPEACSFRELLLEDGYNVYQSEAHGLPLHLPGCKSPHRDPAPRGPARFLPLPGLPPAPPEPPGILAPQPPDVGSSDPLSMVGSQGRSPSYAS
13 | 0.0683 nM | 0.048 nM | 0.102 nM | 197 (protein, Fusion Protein) HGEGTFTSDLSKQLEKELVRLFYEWLINGGHSSGKPPPKGGGGGGGSGGGGSGGGGSA[… human IgG4 Fc with changes …]GGGSGSAHPIPDSSPLLQFGGQVRQRYLYTDDACQTEAHLEIREDGTVGGAADQSPESLLQLKALKPGVIQILGVKTSRFLCQRPDGALYGSLHFDPEACSFRELLLEDGYNVYQSEAHGLPLHLPGCKSPHRDPAPRGPARFLPLPGLPPAPPEPPGILAPQPPDVGSSDPLSMVGSQGRSPSYAS
14 | 0.0865 nM | 0.0651 nM | 0.0869 nM | 198 (protein, Fusion Protein) HGEGTFTSDLSKQLEKELVRLFYEWLIAGGHSSQRPPPKGGGGGGGSGGGGSGGGGSA[… human IgG4 Fc with changes …]GGGSGSAHPIPDSSPLLQFGGQVRQRYLYTDDACQTEAHLEIREDGTVGGAADQSPESLLQLKALKPGVIQILGVKTSRFLCQRPDGALYGSLHFDPEACSFRELLLEDGYNVYQSEAHGLPLHLPGCKSPHRDPAPRGPARFLPLPGLPPAPPEPPGILAPQPPDVGSSDPLSMVGSQGRSPSYAS

Reference: patent US20230250147A1, “GLP-1R AGONISTIC PEPTIDES WITH REDUCED ACTIVITY” (SANOFI, priority 2020, published 2023)
